Test results: PubChem BioAssay AID485281 (National Center for Advancing Translational Sciences (NCATS), 2010)
Hit rate of the full screen: of about 350,000 compounds, about 260 (0.074%) were called active. The shares of active, inactive and inconclusive entries below differ from those in the screen. The call rests on the fitted dose curve; in most records, active means well fitted inhibition curve with a large enough effect; inconclusive means small, poorly fitted or top-dose-only effect; inactive means no such curve, though single readings can be large or run the other way. Potencies beside an inconclusive call are fits to weak or partial responses and may not hold up.

Molecular target: Ferritin light chain (Equus caballus) (UniProt P02791)
Sequence of UniProt P02791 (P02791 whole entry, looked up): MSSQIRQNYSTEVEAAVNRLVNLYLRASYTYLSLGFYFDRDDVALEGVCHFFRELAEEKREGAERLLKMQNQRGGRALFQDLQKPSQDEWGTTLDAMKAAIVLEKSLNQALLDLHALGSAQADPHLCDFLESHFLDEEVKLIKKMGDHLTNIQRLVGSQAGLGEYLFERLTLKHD
Test: qHTS Assay for Identification of Novel General Anesthetics; further: nearly all actives have a fitted effect of over 20% in size
Conditions: apoferritin/1-aminoanthracene competitive binding, fluorescence; activity change, negative = displacement: at 77.5 µM (top of the series)
How it was run: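 10 uM apoferritin + 50% sat. 1-AMA, PBS; cpd 10 min RT; Ex380/Em535 endpoint; normalized to free probe vs complex; 4-param Hill fit; propofol titration as pos. ctrl.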
On the % scale 0 is the no-effect control and ±100 the full control effect; potency means the concentration at half of the fitted maximal effect; tags describe the fitted curve by direction and shape.

Potency, inconclusive:
CCNc1oc(COc2cccc(C)c2)nc1C#N 10 µM [inhibitor, partial curve, poor fit]
CCN(c1ccc(NC(=O)COC(=O)c2ccc(C)s2)cc1)C(C)C 14.1 µM [inhibitor, partial curve]
Nc1nnc(CCCCc2cccs2)o1 14.1 µM [inhibitor, partial curve]
CC(C)(C)NC(=O)COc1ccc(CNc2ccc3[nH]c(=O)[nH]c3c2)cc1 31.6 µM [inhibitor, partial curve]
O=C(NC1CCCCC1)c1ccc2c(c1)sc1nc(-c3ccc(F)cc3)cn12 28.2 µM [inhibitor, single point]
CCOc1ccccc1OCC(=O)Nc1ccc(S(=O)(=O)N(C)C)cc1 39.8 µM [inhibitor, partial curve]
N/C(=N\OC(=O)C12CC3CC(CC(C3)C1)C2)c1cccnc1 15.8 µM [inhibitor, partial curve]
CC1(C)CC2CC(C)(CN2S(=O)(=O)c2ccc(C(=O)Nc3cc(S(=O)(=O)N4CCOCC4)ccc3Cl)cc2)C1 (stereo not given) 5.62 µM [inhibitor, partial curve]
COc1ccc(C2C(C(=O)c3ccccc3)N3c4ccccc4C=CC3C2[N+](=O)[O-])cc1 (stereo not given) 25.1 µM [inhibitor, partial curve]
OC(COc1cccc2ccccc12)CN1CCN(c2ccccn2)CC1 (stereo not given) 25.1 µM [inhibitor, partial curve]
COc1cc(OC)cc(-c2nnc3n2N=C(c2ccccc2OC)CS3)c1 35.5 µM [inhibitor, single point]
Cc1ccc(NC(=O)CSc2nc3ccc(Br)cc3[nH]2)c(C)c1 39.8 µM [inhibitor, single point]
COc1ccc(/C=N/NC(=O)Cc2csc(Nc3cccc(C(F)(F)F)c3)n2)cc1C 7.94 µM [inhibitor, full curve]
CCOc1ccc(N(Cc2ccccc2)C(=O)c2nc(SCC)ncc2Cl)cc1 11.2 µM [inhibitor, partial curve, poor fit]
O=C(COc1ccc(Cl)cc1Cl)NCCC1=CCCCC1 39.8 µM [inhibitor, partial curve, poor fit]
CC1CCN(C(=O)CSc2c3c(nc4ccc(Cl)cc24)CCCC3)CC1 25.1 µM [inhibitor, partial curve]
CCOC(=O)c1ccc(NC(=O)CNC(=O)C23CC4CC(CC(C4)C2)C3)cc1 8.91 µM [inhibitor, partial curve]
CC(C)NC(=O)CCNC(=O)c1ccc(F)cc1 39.8 µM [inhibitor, partial curve]
COc1cccc2c1C(=O)c1c(O)c3c(c(O)c1C2=O)C[C@@](O)(C(=O)CO)C[C@@H]3O[C@H]1C[C@H](N)[C@H](O)[C@H](C)O1 31.6 µM [inhibitor, single point]
CCN1CCN(c2ccc(S(=O)(=O)N3CCCCC3)cc2NC(=O)Cc2c(Cl)cccc2Cl)CC1 31.6 µM [inhibitor, partial curve]
Cc1cc(OCCOCCNC(C)C)cc(C)c1Cl 35.5 µM [inhibitor, single point]
O=C(COC(=O)c1ccc(-c2ccc([N+](=O)[O-])cc2)o1)NC(=O)NC1CCCCC1 31.6 µM [inhibitor, single point]
Cc1cc(OCc2cc(C(=O)N(C)CC3CCOCC3)no2)cc(C)c1Cl 15.8 µM [inhibitor, single point]
Cc1cc(C)c(O)c(-c2cc(C(=O)NCc3ccccc3)[nH]n2)c1 14.1 µM [inhibitor, partial curve]
COc1ccc(-c2cc(C(F)(F)F)nc(SCC(=O)N3CCCCC3)n2)cc1OC 14.1 µM [inhibitor, partial curve]
CCOC(=O)C1=C(COC(=O)C2(C)CC2(Cl)Cl)NC(=O)NC1c1ccc(OC)cc1 (stereo not given) 50.1 µM [inhibitor, single point]
Cc1c(CCOC(=O)CC23CC4CC(CC(C4)C2)C3)sc[n+]1CC(=O)c1ccc(Br)cc1 25.1 µM [inhibitor, partial curve]
CC(=O)c1ccc(N2CCc3ccccc3C2)c([N+](=O)[O-])c1 39.8 µM [inhibitor, partial curve]
N#CSCC(=O)c1cccc2ccccc12 39.8 µM [inhibitor, single point]
CCC1=NN(C(=O)Cc2ccc([N+](=O)[O-])cc2)C(O)(C(C)(C)C)C1 (stereo not given) 25.1 µM [inhibitor, partial curve]
CCc1c(C)sc(NC(=O)c2cc(C(C)C)on2)c1C#N 31.6 µM [inhibitor, partial curve]
COc1cc2c(c(OC)c1OC)-c1c(cc3c(c1O)OCO3)C[C@@H](C)[C@@H](C)C2 50.1 µM [inhibitor, single point]
COc1ccc(Cl)cc1C(=O)Nc1ccc(N(C)C(C)=O)cc1 50.1 µM [inhibitor, single point]
O=C(CCCc1ccccc1)N1CCc2ccccc21 28.2 µM [inhibitor, partial curve]
Cc1ccccc1OCC(=O)N1CCCCCCC1 7.08 µM [inhibitor, partial curve]
Cn1nnnc1SCCNCc1ccc(OCc2ccccc2)cc1 35.5 µM [inhibitor, partial curve]
Cc1cccc(NS(=O)(=O)c2nnc(NC(=O)c3ccc(C)c(C)c3)s2)c1 39.8 µM [inhibitor, single point]
O/N=C/c1ccc(OCc2ccccc2)c(Br)c1 50.1 µM [inhibitor, single point]
Cc1ccc(C)c(N2CCN(CCCNC(=O)CCC(=O)N3CCOc4ccc(Cl)cc43)CC2)c1 35.5 µM [inhibitor, partial curve]
Cc1nnc(OCC(=O)NCCC2=CCCCC2)c2ccccc12 2.82 µM [inhibitor, full curve]
O=C(OC(c1ccccc1)c1nccc2ccccc12)c1cc([N+](=O)[O-])cc([N+](=O)[O-])c1 (stereo not given) 28.2 µM [inhibitor, partial curve, poor fit]
CCOc1ccc(C2C(C(=O)Nc3ccc(F)cc3)=C(C)Nc3nc(CCCO)nn32)cc1 (stereo not given) 28.2 µM [inhibitor, partial curve]
Cc1ccc(OCc2cc(C(=O)NC(C)Cc3cnccn3)no2)cc1C (stereo not given) 35.5 µM [inhibitor, partial curve]
CCCNC(=O)c1csc2c1CCCCC2 17.8 µM [inhibitor, partial curve]
COc1ccccc1C(=O)NCC(=O)N/N=C/c1cccc(Cl)c1 11.2 µM [inhibitor, partial curve]
CC1=NN(C(=O)c2ccc(Br)cc2)C(O)(C(F)(F)OC(F)(F)F)C1 (stereo not given) 39.8 µM [inhibitor, partial curve]
COc1ccc(C(=O)Nc2nc3ccccc3[nH]2)cc1S(=O)(=O)N1CCCC1 35.5 µM [inhibitor, partial curve]
O=C(Nc1nnc(-c2ccc3c(c2)CCCC3)o1)c1ccc(Cl)cc1Cl 50.1 µM [inhibitor, single point]
COc1ccc(NC(=O)CC2CC3CCC2C3)cn1 (stereo not given) 28.2 µM [inhibitor, partial curve]
Cc1cc(C(=O)CN2C(=O)NC3(CCCCC3)C2=O)c(C)n1Cc1ccc2c(c1)OCO2 6.31 µM [inhibitor, full curve]

Activity change, negative = displacement, inactive:
CCCCCCn1c2c(c(=N)c3c1CCC3)CCC2 -11.1%
O=C(c1cnn2c1NC(c1ccco1)CC2C(F)(F)F)N1CCN(c2cccc(Cl)c2)CC1 (stereo not given) -18.8%
Cc1ccc(Nc2cc(C)nc(-n3nc(C)cc3C)n2)cc1 46.8%
CC(=O)N1[C@@H]2CC3C4CC=C5C[C@@H](O)CC[C@]5(C)C4CC[C@]3(C)[C@@]21C(C)=O (stereo not given in full) -7.96%
COC(Cn1c(C)c(C(C)=O)c(C(C)=O)c1C)OC -4.53%
CCc1ccc(C2CC(=O)c3c([nH]c(C(=O)OC4CCC(C)CC4)c3C)C2)cc1 (stereo not given) -4.27%
CCCCN(C)CCCNC(=O)Cn1ncc2c3ccccc3n(Cc3cccc(Cl)c3)c2c1=O -5.65%
CCN1/C(=C/C(=O)c2ccco2)Sc2ccccc21 -23.6%
CC(C)OC(=O)c1c(NC(=O)CCC(=O)O)sc2c1CCCCC2 3.85%
OC(c1ccccc1)(c1ccccc1)C1CCN(C(=S)NC2CCCC2)CC1 -23.4%
COC(=O)c1sccc1S(=O)(=O)N(CC(=O)NCc1ccccc1)c1ccc(C)c(C)c1 -6.86%
CC(=O)N[C@@H](CC(C)C)C(=O)N[C@@H](CC(C)C)C(=O)N[C@H](C=O)CCCN=C(N)N 3.32%
COc1cccc(C(=O)NC(=O)Nc2ccc(-n3nc(C(F)(F)F)cc3C(F)(F)F)cc2)c1 -3.06%
Cc1ccc(NC(=O)c2cnccn2)cc1C -9.03%
CCn1ncc(C2C(C(=O)Nc3ccc(C)cn3)=C(C)NC3=C2C(=O)CCC3)c1C (stereo not given) 79%
